{"source": "patent US20090143279A1", "about": "(priority 2007, published 2009)", "tested_on": "cellular ATP levels", "details": "for ATP (composite Z-score): normalized score vs mock-treated (DMSO) wells", "key": {"[1]": {"details": "composite Z-score vs mock-treated (DMSO) wells, Conc 20 μM"}, "[2]": {"details": "Table 4, C2C12 myotubes, 48 h, composite Z-score"}, "[3]": {"details": "composite Z-score vs DMSO, Conc 20 μM"}, "[4]": {"details": "normalized composite Z-score vs mock-treated (DMSO) wells, Conc 20 μM"}, "[5]": {"details": "20 μM, composite Z-score vs DMSO"}, "[6]": {"details": "composite Z-score vs DMSO wells, Conc 20 μM"}}, "note": "Where two headings read alike, the source gives them in different places."}
{"molecule": "CC1(C)C(=O)C=C[C@@]2(C)C1CC(=O)[C@@]1(C)C3=CC(=O)O[C@@H](c4ccoc4)[C@]3(C)CCC12", "note": "(stereo partly drawn) [7-deacetoxy-7-oxodeoxygedunin]", "values": [{"measurement": "ATP", "setting": "[1]", "value": 0.609}]}
{"molecule": "CN1CCCC(CC2c3ccccc3Sc3ccccc32)C1", "note": "(stereo not drawn) [metixene]", "values": [{"measurement": "ATP", "value": "−1.165"}]}
{"molecule": "OC[C@@H](O)[C@@H](OC1O[C@H](CO)[C@@H](O)[C@H](O)[C@H]1O)[C@H](O)[C@@H](O)CO", "note": "(stereo partly drawn) [glucitol-4-gucopyanoside]", "values": [{"measurement": "ATP (composite Z-score)", "setting": "Conc 20 μM", "value": "−0.172"}]}
{"molecule": "COc1cc2c(cc1OC)[C@@H]1C(=O)c3ccc4c(c3O[C@@H]1CO2)CC(C(C)C)O4", "note": "(stereo partly drawn) [beta-dihydrorotenone, reference compound]", "values": [{"measurement": "ATP", "setting": "[2]", "value": "−2.497"}, {"measurement": "ATP", "setting": "[3]", "value": "−2.497"}]}
{"molecule": "CC1(O)/C=C\\C=C(\\CO)C2CC(C)(C)C2(O)CC1", "note": "(stereo not drawn) [punctaporin B]", "values": [{"measurement": "ATP", "setting": "[4]", "value": "−0.771"}]}
{"molecule": "COc1cc(OC)c2c(=O)c(-c3ccccc3)coc2c1", "note": "[5,7-dimethoxyisoflavone]", "values": [{"measurement": "ATP", "setting": "[3]", "value": "−0.194"}]}
{"molecule": "COC(=O)c1c(C)c2c(c(C)c1OC)OC(=O)c1c(C)c(Cl)c(OC)c(Cl)c1O2", "note": "[leoidin dimethyl ether]", "values": [{"measurement": "ATP", "setting": "[4]", "value": 0.448}]}
{"molecule": "CC(C)(C#N)O[C@@H]1O[C@H](CO)[C@@H](O)[C@H](O)[C@H]1O", "note": "[linamarin]", "values": [{"measurement": "ATP (composite Z-score)", "setting": "Conc 20 μM", "value": 0.025}]}
{"molecule": "COc1ccc2c(c1)OCC(Cc1ccc(OC)c(OC)c1)C2O", "note": "(stereo not drawn) [3-deshydroxysappanol trimethyl ether, reference compound]", "values": [{"measurement": "ATP", "setting": "[4]", "value": "−0.268"}]}
{"molecule": "COc1cc2c(c(OC)c1OC)-c1ccc(=O)c(O)cc1[C@@H](NC(C)=O)CC2", "note": "[colchiceine]", "values": [{"measurement": "ATP", "setting": "[3]", "value": "−0.848"}]}
{"molecule": "COC(=O)[C@H](O)[C@H]1C(C)(C)[C@H](OC(C)=O)[C@@H]2CC3=C4CC(=O)O[C@@H](c5ccoc5)[C@]4(C)CC[C@@H]3[C@@]1(C)C2=O", "note": "[swietenolide-3-acetate]", "values": [{"measurement": "ATP", "setting": "[1]", "value": 1.431}]}
{"molecule": "COc1cc2c(cc1OC)C1(O)C(=O)c3ccc(O)c(C(=O)O)c3OC1CO2", "note": "(stereo not drawn)", "values": [{"measurement": "ATP", "setting": "[4]", "value": 1.728}]}
{"molecule": "Cc1c(N)c(=O)n(-c2ccccc2)n1C", "note": "[4-aminoantipyrine]", "values": [{"measurement": "ATP", "setting": "composite Z-score vs DMSO, Conc 4.42 μM", "value": "−1.148"}]}
{"molecule": "CC[C@@H](C(=O)[C@@H](C)[C@@H](O)[C@H](C)[C@@H]1O[C@@H]([C@@H](CC)C(=O)O)CC[C@@H]1C)[C@H]1O[C@]2(C=C[C@@H](O)[C@]3(CC[C@@](C)([C@H]4CC[C@](O)(CC)[C@H](C)O4)O3)O2)[C@H](C)C[C@@H]1C", "note": "[salinomycin, reference compound]", "values": [{"measurement": "ATP", "setting": "[5]", "value": "−3.542"}]}
{"molecule": "CCOC(=O)CCC(=O)O[C@H]1[C@H](O[C@@H]2[C@@H](C)[C@H](O[C@H]3C[C@@](C)(OC)[C@@H](O)[C@H](C)O3)[C@@H](C)C(=O)O[C@H](CC)[C@@](C)(O)[C@H](O)[C@@H](C)C(=O)[C@H](C)C[C@@]2(C)O)O[C@H](C)C[C@@H]1N(C)C", "note": "[erythromycin ethylsuccinate]", "values": [{"measurement": "ATP", "setting": "[5]", "value": 0.825}]}
{"molecule": "CN[C@@H](C)[C@H](O)c1ccccc1", "note": "[ephedrine]", "values": [{"measurement": "ATP", "setting": "[3]", "value": "−1.049"}]}
{"molecule": "CO[C@H]1C[C@H](O[C@H]2[C@H](C)[C@@H](O[C@@H]3O[C@H](C)C[C@H](N(C)C)[C@H]3OC(C)=O)[C@@H](C)C[C@@]3(CO3)C(=O)[C@H](C)[C@@H](OC(C)=O)[C@@H](C)[C@@H](C)OC(=O)[C@@H]2C)O[C@@H](C)[C@@H]1OC(C)=O", "note": "[troleandomycin]", "values": [{"measurement": "ATP", "setting": "[3]", "value": 0.194}]}
{"molecule": "O=C(O)Cc1cc(I)c(Oc2cc(I)c(O)c(I)c2)c(I)c1", "note": "[tetrac]", "values": [{"measurement": "ATP (composite Z-score)", "setting": "Conc 20 μM", "value": 1.510}]}
{"molecule": "CCn1cc(C(=O)O)c(=O)c2cc3c(cc21)OCO3", "note": "[oxolinic acid]", "values": [{"measurement": "ATP", "setting": "[6]", "value": 0.276}]}
{"molecule": "COc1c(O)cc2c(-c3ccccc3)cc(=O)oc2c1OC", "note": "[kuhlmannin]", "values": [{"measurement": "ATP (composite Z-score)", "setting": "Conc 20 μM", "value": 1.119}]}
{"molecule": "COc1ccc([C@H]2Oc3c(I)c(OC)cc(OC)c3C[C@@H]2O)cc1OC", "note": "[8-iodocatechin tetramethyl ether, reference compound]", "values": [{"measurement": "ATP", "setting": "[2]", "value": 0.343}, {"measurement": "ATP", "setting": "[1]", "value": 0.343}]}
{"molecule": "CC[N+](C)(C)c1cccc(O)c1", "note": "[edrophonium]", "values": [{"measurement": "ATP", "setting": "[5]", "value": 0.134}, {"measurement": "ATP", "setting": "24.06 μM, composite Z-score vs DMSO", "value": 1.406}]}
{"molecule": "NCCCC(=O)O", "note": "[gamma-aminobutyric acid]", "values": [{"measurement": "ATP", "setting": "[6]", "value": "−0.314"}]}
{"molecule": "COc1ccc(-c2oc3cc(O[C@@H]4O[C@H](CO)[C@@H](O)[C@H](O)[C@H]4O)c(OC)c(O)c3c(=O)c2OC)cc1O", "note": "[centaurein]", "values": [{"measurement": "ATP (composite Z-score)", "setting": "Conc 20 μM", "value": "−0.337"}]}
{"molecule": "CC1(C)CC2C1CC[C@]1(CBr)CCC3C(CC(=O)O)C(=O)O[C@@]32C1", "note": "(stereo partly drawn)", "values": [{"measurement": "ATP", "setting": "[4]", "value": "−0.346"}]}
{"molecule": "COc1cc(C=CC=O)cc(OC)c1OC", "note": "[3,4,5-trimethoxycinnamaldehyde]", "values": [{"measurement": "ATP", "setting": "[3]", "value": 0.145}]}
{"molecule": "CC(=O)O[C@H]1C[C@@H](O)C(C)(C)[C@@H]2C[C@@H](OC(C)=O)[C@]3(C)[C@H](CC[C@@]4(C)[C@@H](c5ccoc5)OC(=O)[C@H]5O[C@@]534)[C@@]12C", "note": "[3-deacetylkhivorin]", "values": [{"measurement": "ATP", "setting": "[4]", "value": "−0.078"}]}
{"molecule": "C=CCc1ccc(O)c(OC)c1", "note": "[eugenol]", "values": [{"measurement": "ATP", "setting": "[5]", "value": 0.081}]}
{"molecule": "CC(C)=CCC/C(C)=C/CC/C(C)=C/CO", "note": "[farnesol]", "values": [{"measurement": "ATP", "setting": "[3]", "value": 0.026}]}
{"molecule": "NC(=O)C1(O)C[C@@H](O)C(O)[C@H](O)C1", "note": "(stereo partly drawn) [quinamide]", "values": [{"measurement": "ATP (composite Z-score)", "setting": "Conc 20 μM", "value": 1.161}]}
{"molecule": "CC1=CC(=O)C2=C(C)C[C@H](O)[C@@H]3[C@H](OC(=O)[C@H]3C)[C@H]12", "note": "[austricine]", "values": [{"measurement": "ATP (composite Z-score)", "setting": "Conc 20 μM", "value": 0.158}]}
{"molecule": "CC(=O)Nc1ccc(OC(=O)c2ccccc2O)cc1", "note": "[acetaminosalol]", "values": [{"measurement": "ATP", "setting": "[6]", "value": 1.128}]}
{"molecule": "CC1(C)S[C@@H]2[C@H](NC(=O)C(C(=O)O)c3ccccc3)C(=O)N2[C@H]1C(=O)O", "note": "(stereo partly drawn) [carbenicillin]", "values": [{"measurement": "ATP", "setting": "[5]", "value": 0.037}]}
{"molecule": "COc1ccccc1-c1cc(=O)c2cccc(OC)c2o1", "note": "[8,2′-dimethoxyflavone]", "values": [{"measurement": "ATP (composite Z-score)", "setting": "Conc 20 μM", "value": 0.456}]}
{"molecule": "COc1ccc2c(c1)O[C@@H]1COc3cc(OC)c(OC)cc3[C@@H]1C2=O", "note": "[mundoserone, reference compound]", "values": [{"measurement": "ATP", "setting": "[1]", "value": "−1.275"}]}
{"molecule": "Oc1ccc([C@H]2Oc3cc(O)cc(O)c3C[C@H]2O)cc1", "note": "[(2R,3R)-(−)-epiafzelechin]", "values": [{"measurement": "ATP", "setting": "[3]", "value": 0.986}]}
{"molecule": "CCOC(=O)c1c(C)cc(OC)cc1O", "note": "[ethyl everninate]", "values": [{"measurement": "ATP", "setting": "[3]", "value": 0.492}]}
{"molecule": "Cc1c(C(=O)O)c(O)cc2c1C(=O)c1c(O)c([C@@H]3O[C@H](CO)[C@@H](O)[C@H](O)[C@H]3O)c(O)c(O)c1C2=O", "note": "[carminic acid]", "values": [{"measurement": "ATP", "setting": "[3]", "value": "−0.059"}]}
{"molecule": "CCC(C)C(=O)OC1[C@@H]2CC3=C4CC(=O)O[C@@H](c5ccoc5)[C@]4(C)CCC3[C@@](C)(C2=O)[C@@H](CC(=O)OC)C1(C)C", "note": "(stereo partly drawn) [khayasin]", "values": [{"measurement": "ATP", "setting": "[1]", "value": 0.871}]}
{"molecule": "Cc1cc(O)ccc1Cl", "note": "[chlorocresol]", "values": [{"measurement": "ATP", "setting": "[5]", "value": "−0.105"}]}
{"molecule": "CC(C)(O)[C@H]1CC[C@]2(C)[C@H]3CC[C@@H]4[C@@]5(C)CCCC(C)(C)[C@@H]5[C@@H](O)C[C@@]4(C)[C@]3(C)CC[C@@H]12", "note": "[zeorin]", "values": [{"measurement": "ATP", "setting": "[4]", "value": "−0.326"}]}
{"molecule": "COc1cc2ccc(=O)oc2c2ccoc12", "note": "[sphondin]", "values": [{"measurement": "ATP", "setting": "[1]", "value": 0.064}]}
{"molecule": "CC(=O)O[C@H]1C[C@H](O[C@H]2[C@@H](O)C[C@H](O[C@H]3[C@@H](O)C[C@H](O[C@H]4CC[C@@]5(C)[C@H](CC[C@@H]6[C@@H]5C[C@@H](O)[C@]5(C)[C@@H](C7=CC(=O)OC7)CC[C@]65O)C4)O[C@@H]3C)O[C@@H]2C)O[C@H](C)[C@H]1O[C@@H]1O[C@H](CO)[C@@H](O)[C@H](O)[C@H]1O", "note": "[lanatoside C]", "values": [{"measurement": "ATP", "setting": "[6]", "value": 0.349}]}
{"molecule": "COC(=O)C(C)c1ccc(C(=O)c2cccs2)cc1", "note": "(stereo not drawn) [suprofen methyl ester]", "values": [{"measurement": "ATP", "setting": "[3]", "value": 0.771}]}
{"molecule": "Cc1cc(=O)[nH]c(=S)[nH]1", "note": "[methylthiouracil]", "values": [{"measurement": "ATP", "setting": "[5]", "value": 0.145}]}
{"molecule": "N[C@@H](Cc1ccc(N(CCCl)CCCl)cc1)C(=O)O", "note": "[melphalan]", "values": [{"measurement": "ATP", "setting": "[6]", "value": 1.590}]}
{"molecule": "COc1ccc([C@@H]2CC(=O)c3c(O)cc(O[C@@H]4O[C@H](CO[C@@H]5O[C@@H](C)[C@H](O)[C@@H](O)[C@H]5O)[C@@H](O)[C@H](O)[C@H]4O)cc3O2)cc1O", "note": "[hesperidin]", "values": [{"measurement": "ATP", "setting": "[5]", "value": 0.769}]}
{"molecule": "estrone hemisuccinate", "values": [{"measurement": "ATP", "setting": "[6]", "value": 0.242}]}
